Results as given in PubChem BioAssay AID485294 (National Center for Advancing Translational Sciences (NCATS), 2010).
The campaign covered roughly 370,000 compounds. About 150 (0.041%) were called active. The inconclusive results got no clear call from the source; some entries with a clear call stand among them for comparison. Calls follow the shape of the dose curve; as a rule, active = well fitted inhibition curve with a large enough effect; inconclusive = small, poorly fitted or top-dose-only effect; inactive = flat fitted curve, though single readings scatter. Potencies of inconclusive entries are left out as doubtful fits.
Also: nearly all actives have a fitted effect of over 25% in size.
Potency is read from the fitted curve at half-maximal effect; tags tell the direction and shape of the fitted curve.

The compounds below were run against Beta-lactamase (Escherichia coli (strain K12)) (UniProt P00811) (assay: qHTS Inhibitors of AmpC Beta-Lactamase (assay with detergent)). Details: AmpC hydrolysis of nitrocefin, absorbance 480 nm, 0.01% Triton; series mostly up to 114 µM.
Chain of UniProt P00811 (P00811 whole entry, looked up): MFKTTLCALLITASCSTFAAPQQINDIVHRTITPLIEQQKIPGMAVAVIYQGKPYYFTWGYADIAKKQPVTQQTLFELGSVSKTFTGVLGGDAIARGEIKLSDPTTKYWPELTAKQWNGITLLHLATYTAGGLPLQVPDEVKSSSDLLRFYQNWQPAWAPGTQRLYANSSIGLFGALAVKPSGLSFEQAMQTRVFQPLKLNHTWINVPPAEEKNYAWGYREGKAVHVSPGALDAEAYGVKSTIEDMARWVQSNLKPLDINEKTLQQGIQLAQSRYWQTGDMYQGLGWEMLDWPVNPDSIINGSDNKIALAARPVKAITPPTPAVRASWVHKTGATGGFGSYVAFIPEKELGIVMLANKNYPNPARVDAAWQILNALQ
Protocol: NIH Molecular Libraries Probe Production Network [MLPCN] NIH Chemical Genomics Center [NCGC] Assay Provider: Professor Brian Shoichet, UCSF Assay Overview: This aggregation profiling approach exploits the sensitivity of aggregate formation to detergent. Inhibition of b-lactamase is measured in the presence and absence of 0.01% Triton X-100. This particular assay had the prescence of 0.01% Triton X-100. See Pubchem assay "Promiscuous and Specific Inhibitors of AmpC Beta-Lactamase (assay without detergent)" for related screen. Compounds that inhibit only in the absence of detergent are considered likely promiscuous aggregators. A screen of 1,030 compounds was performed in Brian Shoichet's lab in 96-well format. AmpC activity was measured by following the absorbance at 480 nm. Nitrocefin is a chromogenic substrate: while nitrocefin is yellow (lmax 390 nm), the product of its hydrolysis is red (lmax 486 nm, 17,000 M-1). AmpC beta lactamase was provided by Shoichet Lab, UCSF.
Buffer: 20 mM phosphate buffer, pH 7.0 Triton X-100: No Detergent screen: 0.0001%, Detergent screen: 0.01%. Reagents/Controls: Buffer in columns 3 and 4 as negative control (no enzyme). 5.3 nM AmpC in columns 1, 2, 5-48. Titration of UCSF compound 9 control (from 10 mM, then 1:2) pin-transferred to column 2. Column 1 is neutral (100% activity). Assay Steps: Six uL of reagents were dispensed to 1536-well Greiner black clear bottom plates. Compounds and controls (23 nL) were transferred via Kalypsys PinTool. The plates were incubated for 15 min at room temperature, and then 2 uL of 800 uM solution of nitrocefin was added to start the reaction. The plates were immediately transferred to and read every 20 seconds for 4 min on ViewLux (Perkin-Elmer) High-throughput CCD imager using 480 nm absorbance protocol. During dispense, reagent bottles were kept submerged into 4 deg C water bath. Keywords: NIH Roadmap, MLSCN, MLI, MLSMR, qHTS, NCGC, AmpC Beta-Lactamase, Aggregation
For `CCCNC(=O)N[C@@H](Cc1ccccc1)C(=O)OC`, the Potency was inconclusive [inhibitor, full curve]. For `Cn1c(SCC(=O)c2ccc(F)cc2)nnc1-c1cccnc1`, the Potency was inconclusive [inhibitor, single point]. In the case of `Cc1ccccc1NC(=S)NC1CC2CCC(C1)N2Cc1ccco1` (centres undefined), the Potency is reported as inconclusive [inhibitor, full curve, poor fit]. `COCCn1nnnc1C(c1ccc2ncccc2c1)N1CCN(c2ccccc2F)CC1` (centres undefined) was tested, and the Potency was “inactive”. In the case of `COc1cc(-c2nc3ccccn3c2/N=C/c2ccccc2)ccc1O`, the Potency is reported as “inactive”. In the case of `O=S(=O)(Cc1ccccc1)N1CCN(Cc2ccccc2)CC1`, the Potency is reported as inconclusive [inhibitor, full curve, poor fit]. `O=C(CCCc1nc2ccccc2s1)N1CCN(S(=O)(=O)c2cccs2)CC1` was tested, and the Potency was inconclusive [inhibitor, single point]. `O=C(Nc1cccc(Cl)c1)NC1CC2CCC(C1)N2Cc1ccco1` (centres undefined) was tested, and the Potency was “inactive”. For `CCn1ccc2cc(S(=O)(=O)N3CCC(C(=O)NCc4ccc(OC(C)C)cc4)CC3)ccc21`, the Potency was “inactive”. With `OC(C[n+]1ccccc1)c1ccccc1` (centres undefined) the Potency was inconclusive [inhibitor, full curve, poor fit]. With `CC1CN=C(Nc2ccc(F)cc2)S1` (centres undefined) the Potency was inconclusive [inhibitor, full curve, poor fit]. `CCOc1ccc(C(C)=O)cc1Cn1c(=O)oc2ccccc21` was tested, and the Potency was inconclusive [inhibitor, single point]. With `O=C(OCc1ccc(Cl)cc1Cl)c1cccnc1Cl` the Potency was inconclusive [inhibitor, partial curve, poor fit]. With `Cn1cnnc1SC(C(=O)Nc1ccc(F)cc1)c1ccccc1` (centres undefined) the Potency was inconclusive [inhibitor, full curve, poor fit]. In the case of `COc1ccc(OC)c(NC(=O)c2cc3ccccc3cc2OC)c1`, the Potency is reported as inconclusive [inhibitor, full curve, poor fit]. For `Cc1cc(C)c(C)c(S(=O)(=O)N2CCC(C(=O)Nc3ccccc3N3CCOCC3)CC2)c1C`, the Potency was inconclusive [inhibitor, partial curve, poor fit]. For `CC(=O)c1ccn(S(=O)(=O)c2ccccc2)c1`, the Potency was inconclusive [inhibitor, single point]. In the case of `CCOC(=O)c1cnc(-n2nc(C)cc2C)nc1NNc1cc(C)nc(-c2ccccc2)n1`, the Potency is reported as inconclusive [inhibitor, full curve, poor fit]. For `O=C(Nc1ccc2c(c1)OCO2)Nc1ccccc1F`, the Potency was “inactive”. For `COc1ccc(C(c2c(C)n(C)n(-c3ccccc3)c2=O)c2c(C)n(C)n(-c3ccccc3)c2=O)c(OC)c1OC`, the Potency was inconclusive [inhibitor, partial curve, poor fit]. In the case of `CCOC(=O)c1oc2ccccc2c1NC(=O)CCl`, the Potency is reported as “inactive”. `Cc1ccc(C(=O)NCCCNC(=O)c2ccco2)cc1C` was tested, and the Potency was inconclusive [inhibitor, full curve, poor fit]. With `Fc1c(CSC(=S)N2CCOCC2)cccc1CSC(=S)N1CCOCC1` the Potency was inconclusive [inhibitor, full curve]. With `COc1ccc([N+](=O)[O-])cc1NC(=O)C(C)OC(=O)Cn1[nH]c(=O)c2ccccc2c1=O` (centres undefined) the Potency was inconclusive [inhibitor, partial curve, poor fit]. In the case of `O=C(CCCn1c(SCC(=O)NCC2CCCO2)nc2ccccc2c1=O)NCc1ccccc1` (centres undefined), the Potency is reported as inconclusive [inhibitor, full curve]. With `CCNS(=O)(=O)c1ccc(NC(=O)c2ccc(Cn3cc(Br)cn3)o2)cc1` the Potency was inconclusive [inhibitor, full curve, poor fit]. `N=c1n(CCN2CCCC2)c2ccccc2n1CC(O)c1ccc(Cl)c(Cl)c1` (centres undefined) was tested, and the Potency was “inactive”. In the case of `Cc1cccc(NC(=S)NCc2ccc(F)cc2)c1C`, the Potency is reported as inconclusive [inhibitor, partial curve, poor fit]. With `COc1ccc(-c2cnc(NCc3ccc(C)cc3)n2C)cc1` the Potency was inconclusive [inhibitor, full curve, poor fit]. With `Cc1ccc(N2C(=O)C3CCC(c4ccccc4)CC3C2=O)cc1` (centres undefined) the Potency was inconclusive [inhibitor, partial curve]. In the case of `CC(=O)N1CCN(C(=O)c2ccc(OC3CCN(Cc4ccccn4)CC3)cc2)CC1`, the Potency is reported as inconclusive [inhibitor, single point]. With `CC(C)NC(=O)Cn1c(=O)c2c(ncn2Cc2ccccc2)n(Cc2ccccc2)c1=O` the Potency was inconclusive [inhibitor, single point]. With `CCC(C)NC(=O)c1sc2nc(C)c(C(=O)Nc3ccc(C)cc3C)c(-c3ccc(Br)cc3)c2c1N` (centres undefined) the Potency was “inactive”. In the case of `CC(=O)c1ccc(NC(=O)N2CCCC(C(=O)c3ccc4c(c3)OCO4)C2)cc1` (centres undefined), the Potency is reported as “inactive”. In the case of `COc1ccc(-c2ccc(CCC(=O)O)n2NC(=O)c2cccs2)cc1`, the Potency is reported as “inactive”. For `COc1ccc(NC(C)C(=O)N/N=C/c2ccc([N+](=O)[O-])s2)cc1` (centres undefined), the Potency was inconclusive [inhibitor, full curve, poor fit]. `Cc1ccc(NC(=O)COC(=O)COc2ccc3ccc(=O)oc3c2)cc1[N+](=O)[O-]` was tested, and the Potency was inconclusive [inhibitor, full curve, poor fit]. For `Cc1cc(C)cc(NC(=O)Nc2ccc3c(c2)CCC3)c1`, the Potency was “inactive”. For `COCCCNc1nc2c(-c3ccc(Cl)cc3)nnn2c2ccccc12`, the Potency was inconclusive [inhibitor, partial curve, poor fit]. With `O=C(/C=C/c1ccc(Cl)c([N+](=O)[O-])c1)Nc1ccc(NC(=O)c2ccco2)cc1` the Potency was inconclusive [inhibitor, partial curve, poor fit]. `CNC(=O)c1ccc(-c2ccc(OC)cc2)s1` was tested, and the Potency was “inactive”. `COc1ccc(-c2nnn(Cc3ccccc3)n2)cc1OC` was tested, and the Potency was inconclusive [inhibitor, full curve, poor fit]. With `COc1ccc(CNC(=O)c2ccc3c(c2)CCN3S(=O)(=O)c2ccc(Cl)cc2)cc1` the Potency was “inactive”. With `COc1ccc(C)cc1NC(=O)CSc1nnc(CC(=O)Nc2ccccc2C)n1C` the Potency was inconclusive [inhibitor, full curve, poor fit]. With `CC(C)(C)c1ccc(-n2ncc3c2CCCC3NC(=O)CN2CCCCC2=O)cc1` (centres undefined) the Potency was “inactive”. For `O=C(COc1ccc(F)cc1)NC1CC(=O)N(c2ccc3c(c2)OCCO3)C1` (centres undefined), the Potency was “inactive”. `CC1CC(C)(C)NC(=S)N1CCC(=O)Nc1ccc2c(c1)OCCO2` (centres undefined) was tested, and the Potency was “inactive”. `Cc1cc2n(n1)C(c1ccsc1)Nc1ccccc1-2` (centres undefined) was tested, and the Potency was inconclusive [inhibitor, full curve, poor fit]. With `CSc1ccc(/C=N/N(C)S(=O)(=O)c2ccc(C)cc2)cc1` the Potency was inconclusive [inhibitor, single point]. With `CN(C)c1nc(Cl)cc(N2CCOCC2)n1` the Potency was inconclusive [inhibitor, full curve, poor fit]. `Nc1c(-c2ccccc2)cnn1-c1cccc([N+](=O)[O-])c1` was tested, and the Potency was “inactive”. `Cc1ccc(C(=O)N2CCC3(CC2)Oc2ccc(F)cc2C(=O)C32CC(c3ccccc3)=NO2)s1` (centres undefined) was tested, and the Potency was “inactive”. For `O=C(COC(=O)c1ccc2c(c1)OCCO2)NC1CCCCC1`, the Potency was inconclusive [inhibitor, full curve]. For `Cc1cc(C)cc(NC(=O)c2ncn(-c3ccccc3)n2)c1`, the Potency was “inactive”. For `Cc1cccc(NC(=O)c2ccc(S(=O)(=O)N(C)C)cc2)c1`, the Potency was inconclusive [inhibitor, partial curve, poor fit]. In the case of `Cn1ccnc1SCC(=O)Nc1ccc(Oc2ccccc2)cc1`, the Potency is reported as inconclusive [inhibitor, full curve]. With `CCOC(=O)/C(C#N)=C1/C=C(C)NC(c2ccccc2O)=N1` the Potency was inconclusive [inhibitor, full curve, poor fit]. With `c1ccc(C2Nc3ccccc3C3OCCCC23)cc1` (centres undefined) the Potency was inconclusive [inhibitor, partial curve]. `O=C(COC(=O)CC1CCCCC1)Nc1c(Cl)cccc1Cl` was tested, and the Potency was inconclusive [inhibitor, full curve, poor fit]. `CCCCn1c(N)c(N(CCC(C)C)C(=O)c2cccc(S(=O)(=O)N3CCN(C)CC3)c2)c(=O)[nH]c1=O` was tested, and the Potency was inconclusive [inhibitor, full curve, poor fit]. In the case of `Cn1c2ccccc2c2cc(C(=O)O)ccc21`, the Potency is reported as inconclusive [inhibitor, partial curve, poor fit]. With `Cc1ccc2[nH]cc(C(=O)CN3CCN(c4ccccn4)CC3)c2c1` the Potency was inconclusive [inhibitor, single point]. With `Cc1ccc(-n2c(SCc3cn4ccsc4n3)nc3ccccc3c2=O)cc1` the Potency was “inactive”. For `CCOC(=O)C1(C)C=C(Nc2cccc(C)c2)C(=O)N1c1ccccc1` (centres undefined), the Potency was “inactive”. `C=CCN1C(=O)CSc2ccc(C(=O)NCc3cccs3)cc21` was tested, and the Potency was inconclusive [inhibitor, full curve, poor fit]. In the case of `COc1ccc(NC(=O)CN(c2ccccc2OC)S(C)(=O)=O)c(OC)c1`, the Potency is reported as “inactive”. For `COc1ccc(NC(=O)NC2CCCCCCC2)cc1`, the Potency was “inactive”. `COc1cc(NC(=O)CCc2c(C)nc3c4c(C)cc(C)nc4nn3c2C)cc(OC)c1` was tested, and the Potency was “inactive”. With `Cc1cccc(C(=O)Nc2sc(C)c(-c3ccccc3)c2C#N)c1` the Potency was inconclusive [inhibitor, single point].
